# Sequences with one replicate were seen in a single cluster, so their values are uncertain.
# Test system: ATP
# Experiment: switch fluorescence ratio, 500 uM ATP over buffer (Cy3 cluster intensity, sum of 5 cycles each) (fold (ratio)); higher = stronger signal-on switching upon ATP binding; sequences stand for … in TCGTCGGCAGCGTCAGATGTGTATAAGAGACAGTTTTTTTTTTTTTTTTTTTTTTTTT…TC
# Conditions: aptamer strand: ATP DNA aptamer (quencher-CACCTGGGGGAGTATTGCGGAGGAAGG + anchor), 100 nM annealed; ATP concentration: 500 uM; one replicate
# Procedure, shortened: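 Per cluster, summed Cy3 intensity from the target cycles was divided by that from the buffer cycles to give the fluorescence ratio, then averaged per switch-domain sequence. Clusters outside 100-1000 RFU were excluded. The Cy3-labelled switching-strand clusters, on a modified Illumina MiSeq flow-cell, were annealed to 100 nM quencher-labelled ATP aptamer and imaged in selection buffer, then after 15 min with 500 uM ATP at 22 °C, for five cycles with NaOH stripping and re-annealing between them.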
# 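Further: ATP exposure 15 min at 22 °C before imaging.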
sequence,measurement,value
AGGCGGTCAC,switch fluorescence ratio,1
AATGTGTGTG,switch fluorescence ratio,0.974
CTAACAGTGC,switch fluorescence ratio,1.1
CGCTCTACCA,switch fluorescence ratio,1.1
CGGACTTTCT,switch fluorescence ratio,1
TTTTTGCAGA,switch fluorescence ratio,1.01
TGTTAAACCG,switch fluorescence ratio,1.11
TTCGGATTAC,switch fluorescence ratio,2.71
TGAGGAGGTA,switch fluorescence ratio,1.04
AGTCTATTTA,switch fluorescence ratio,0.987
GAATATAGAT,switch fluorescence ratio,0.994
CTCAGGTTTC,switch fluorescence ratio,1.04
ACGTGCGTTA,switch fluorescence ratio,1.02
GATTTGGTTC,switch fluorescence ratio,0.958
CTCTGGACTT,switch fluorescence ratio,0.998
AATCACTTTC,switch fluorescence ratio,1.1
AGGCGAATAT,switch fluorescence ratio,1.11
TTACGCTGAC,switch fluorescence ratio,2.93
GGCAGCAAAG,switch fluorescence ratio,1.08
GTCTGATGAA,switch fluorescence ratio,0.94
TGCCGATCAC,switch fluorescence ratio,0.976
ATTTTGTGAC,switch fluorescence ratio,1.02
TATGGATAG,switch fluorescence ratio,1.01
AAGCAGGCTG,switch fluorescence ratio,0.96
CGCGCCTAAG,switch fluorescence ratio,0.992
TTCGGCCTTA,switch fluorescence ratio,0.987
CTGCCTAGGA,switch fluorescence ratio,1
CCTGAGCTCG,switch fluorescence ratio,1.01
ACAGTGCTGA,switch fluorescence ratio,1.06
AACCATTGT,switch fluorescence ratio,1
ATCCCCAATA,switch fluorescence ratio,1.3
GCTTATTCAT,switch fluorescence ratio,1.02
TTATTAACAG,switch fluorescence ratio,1.01
TAAGGTTAGG,switch fluorescence ratio,0.984
TCGGGGACAT,switch fluorescence ratio,1.02
ACTATAACA,switch fluorescence ratio,1.04
CGATCCCAGT,switch fluorescence ratio,1.48
GTATGCAGTG,switch fluorescence ratio,0.973
GCAGCAGAGC,switch fluorescence ratio,1.28
CGATACCTGA,switch fluorescence ratio,1.05
AACCCTAAAA,switch fluorescence ratio,0.949
CTTTCGCCTC,switch fluorescence ratio,1.43
TGATTTTCTT,switch fluorescence ratio,0.977
AGAAACGCTT,switch fluorescence ratio,1.04
ATATGTGAAG,switch fluorescence ratio,1.02
CTGGTAATG,switch fluorescence ratio,1.01
TCCGTTGTAG,switch fluorescence ratio,1.22
AACCACGACG,switch fluorescence ratio,1.19
GCGATCACGG,switch fluorescence ratio,1.05
TATTTAGAGC,switch fluorescence ratio,0.969
CGTGGGGCGC,switch fluorescence ratio,0.992
GCTGGGGGTA,switch fluorescence ratio,1.01
TAATTGGTAC,switch fluorescence ratio,1.09
AGCCGGGAGT,switch fluorescence ratio,0.991
TCATAATCCT,switch fluorescence ratio,1.04
GATGGCTTCT,switch fluorescence ratio,1.04
CAATTAGCTG,switch fluorescence ratio,0.95
TGGTGCGGCA,switch fluorescence ratio,1.01
TTGAGTCTGA,switch fluorescence ratio,0.955
GTACTGGGCA,switch fluorescence ratio,0.968
CTTAATATAG,switch fluorescence ratio,1.03
ATTCCGTCGT,switch fluorescence ratio,1.08
ACCAATGCAG,switch fluorescence ratio,0.994
CTAGGGGTCG,switch fluorescence ratio,1.02
GTTCTGCTAA,switch fluorescence ratio,1.02
GCCTAATGGA,switch fluorescence ratio,1.01
GAATAACCCC,switch fluorescence ratio,1.02
CGTCTCTCTA,switch fluorescence ratio,1.04
TAATATTATA,switch fluorescence ratio,0.979
TCGAAAAGAG,switch fluorescence ratio,1.01
TCACGTAATT,switch fluorescence ratio,1.37
GGTTTTAGC,switch fluorescence ratio,0.995
AATGCCGTGC,switch fluorescence ratio,0.985
TGCAGGAACC,switch fluorescence ratio,1.06
TGTGTTCAGC,switch fluorescence ratio,0.981
GCTTACCATA,switch fluorescence ratio,1.06
GGATTCGTAG,switch fluorescence ratio,0.986
CAAATGACA,switch fluorescence ratio,0.991
AGTTAGTCTA,switch fluorescence ratio,1.01
GGCGCAGATA,switch fluorescence ratio,1.04
TGATTCCAGT,switch fluorescence ratio,1.02
ATCTGTCCAC,switch fluorescence ratio,0.987
GTAAAGCCCG,switch fluorescence ratio,0.998
TCTGCCTAAA,switch fluorescence ratio,0.992
GCCCTGAATT,switch fluorescence ratio,0.961
AGATGAAA,switch fluorescence ratio,0.987
GCACGCCTTG,switch fluorescence ratio,1.15
CGTGTTCGTG,switch fluorescence ratio,0.97
GGGAACTACA,switch fluorescence ratio,1.05
GAGCGTTATG,switch fluorescence ratio,1.03
GGTGCGTTTG,switch fluorescence ratio,0.954
AGCTCAACTC,switch fluorescence ratio,1.07
CTTCGTAGGA,switch fluorescence ratio,0.956
GATGACCTT,switch fluorescence ratio,1.27
ATTGGTGGCA,switch fluorescence ratio,1.04
CGATTGGGAA,switch fluorescence ratio,1.01
ATCATCCCGG,switch fluorescence ratio,1.04
ACGGACCTCT,switch fluorescence ratio,1.31
CATCTAGGTC,switch fluorescence ratio,1.16
ATCTTTCACC,switch fluorescence ratio,1.04
AATTAATAT,switch fluorescence ratio,1.01
GTAACTTGCT,switch fluorescence ratio,1.01
AGAGGCAAAG,switch fluorescence ratio,1.04
TTCGTTTGTA,switch fluorescence ratio,0.972
GCTATAACCG,switch fluorescence ratio,0.969
ATGCAAAACC,switch fluorescence ratio,1.17
ATCTGCGGGT,switch fluorescence ratio,0.958
CTCCCGGGGG,switch fluorescence ratio,1.46
TGATAGTCAA,switch fluorescence ratio,0.966
AAGTCGAAGG,switch fluorescence ratio,1.02
CTGTCATTTC,switch fluorescence ratio,0.99
AATGGTATAG,switch fluorescence ratio,0.982
ATCTCTCCTC,switch fluorescence ratio,1.09
AGGTATGCGG,switch fluorescence ratio,0.97
TGGTACCAGC,switch fluorescence ratio,1.01
AGGGGGTCG,switch fluorescence ratio,0.94
GCGCTGTGAC,switch fluorescence ratio,1.25
GTTTTCCTAG,switch fluorescence ratio,1.03
TATGGGTTCG,switch fluorescence ratio,1
ATAAAGAGAC,switch fluorescence ratio,0.993
AATGCAATAG,switch fluorescence ratio,3.76
TTACTGACAG,switch fluorescence ratio,1.12
TGCTATAATT,switch fluorescence ratio,0.942
TCCTACAAAA,switch fluorescence ratio,1.97
TTGGGCCGGA,switch fluorescence ratio,1.02
AAGTATTCCC,switch fluorescence ratio,1.05
CACGGAAATT,switch fluorescence ratio,1.05
CTATAAGGCA,switch fluorescence ratio,1.06
GCTTTACATA,switch fluorescence ratio,1.05
GACAGGCGTC,switch fluorescence ratio,1
GGGAGGAAA,switch fluorescence ratio,0.96
AATTTCTGAC,switch fluorescence ratio,1.12
GCGAGAGCGC,switch fluorescence ratio,0.944
GCGTTTGCG,switch fluorescence ratio,0.987
GGCGGAGGTG,switch fluorescence ratio,1.12
AATGGAGATC,switch fluorescence ratio,0.979
GTCGAGGTAT,switch fluorescence ratio,1.09
ACATCTAA,switch fluorescence ratio,0.969
GCGCAACGTA,switch fluorescence ratio,0.992
TGTGGCGTGC,switch fluorescence ratio,1
TACCCACGGT,switch fluorescence ratio,1.24
TTAGGAACTG,switch fluorescence ratio,0.972
CATACCAGTC,switch fluorescence ratio,1.06
CCATCCCGGC,switch fluorescence ratio,1.27
AGGACGTCTT,switch fluorescence ratio,0.983
AACGGAAACA,switch fluorescence ratio,1.06
TTCCAGAGCA,switch fluorescence ratio,3.03
TTTCCGTGCC,switch fluorescence ratio,3.11
TCATCAAATG,switch fluorescence ratio,1.06
GATTGCAACA,switch fluorescence ratio,1.01
TACTGAAACC,switch fluorescence ratio,1.16
AAATTTTCCT,switch fluorescence ratio,1.17
TTTCCCCGGA,switch fluorescence ratio,1.01
TTGAGGTTGC,switch fluorescence ratio,0.965
TCGATACCGG,switch fluorescence ratio,1.04
AGACAATTTC,switch fluorescence ratio,1.03
CCTGCTGCTA,switch fluorescence ratio,3.14
